# Results as given in the supplement of paper PMC8728848.
# The list shows a part of the results.
# What was measured:
# Assay in all cases: glycan array binding signal (z-score within array); higher = stronger binding
# Details in all cases: glycan notation: IUPAC condensed, linker removed
# [1] = biological target: Fuc(a1-2)Gal6S(b1-3)GlcNAc
# Method in brief: (§1)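 Glycan array data were curated from 3228 arrays in the Consortium for Functional Glycomics database and kept only where the protein sequence was available. Glycan names were converted to IUPAC-condensed notation, and columns mapping to the same glycan were averaged. The binding signal is a within-array Z-score, averaged across arrays of the same protein sequence at different concentrations or buffers and across linkers. Negative Z-scores can be read as non-binding.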
# [2] = biological target: Fuc(a1-2)Gal6S(b1-3)GlcNAc6S
# Method in brief: as §1
# Fuc(a1-2)Gal6S(b1-4)Glc = biological target: Fuc(a1-2)Gal6S(b1-4)Glc
# Method in brief: as §1
# [3] = biological target: Fuc(a1-2)Gal6S(b1-4)Glc6S
# Method in brief: as §1
# Fuc(a1-2)[Gal(a1-3)]Gal = biological target: Fuc(a1-2)[Gal(a1-3)]Gal
# Method in brief: as §1
# [4] = biological target: Fuc(a1-2)[Gal(a1-3)]Gal(b1-3)GalNAc
# Method in brief: as §1
# [5] = biological target: Fuc(a1-2)[Gal(a1-3)]Gal(b1-3)GalNAc(b1-3)Gal(a1-4)Gal(b1-4)Glc
# Method in brief: as §1
# [6] = biological target: Fuc(a1-2)[Gal(a1-3)]Gal(b1-3)GlcNAc
# Method in brief: as §1
# [7] = biological target: Fuc(a1-2)[Gal(a1-3)]Gal(b1-3)GlcNAc(b1-2)Man(a1-3)[Fuc(a1-2)[Gal(a1-3)]Gal(b1-3)GlcNAc(b1-2)Man(a1-6)]Man(b1-4)GlcNAc(b1-4)GlcNAc
# Method in brief: as §1
# [8] = biological target: Fuc(a1-2)[Gal(a1-3)]Gal(b1-3)GlcNAc(b1-2)Man(a1-3)[Fuc(a1-2)[Gal(a1-3)]Gal(b1-3)GlcNAc(b1-2)Man(a1-6)]Man(b1-4)GlcNAc(b1-4)[Fuc(a1-6)]GlcNAc
# Method in brief: as §1
# [9] = biological target: Fuc(a1-2)[Gal(a1-3)]Gal(b1-3)GlcNAc(b1-3)GalNAc
# Method in brief: as §1
# [10] = biological target: Fuc(a1-2)[Gal(a1-3)]Gal(b1-3)GlcNAc(b1-6)GalNAc
# Method in brief: as §1
# [11] = biological target: Fuc(a1-2)[Gal(a1-3)]Gal(b1-4)Glc
# Method in brief: as §1
# [12] = biological target: Fuc(a1-2)[Gal(a1-3)]Gal(b1-4)GlcNAc
# Method in brief: as §1
# [13] = biological target: Fuc(a1-2)[Gal(a1-3)]Gal(b1-4)GlcNAc(b1-2)Man
# Method in brief: as §1
# [14] = biological target: Fuc(a1-2)[Gal(a1-3)]Gal(b1-4)GlcNAc(b1-2)Man(a1-3)[Fuc(a1-2)[Gal(a1-3)]Gal(b1-4)GlcNAc(b1-2)Man(a1-6)]Man(b1-4)GlcNAc(b1-4)GlcNAc
# Method in brief: as §1
# [15] = biological target: Fuc(a1-2)[Gal(a1-3)]Gal(b1-4)GlcNAc(b1-2)Man(a1-3)[Fuc(a1-2)[Gal(a1-3)]Gal(b1-4)GlcNAc(b1-2)Man(a1-6)]Man(b1-4)GlcNAc(b1-4)[Fuc(a1-6)]GlcNAc
# Method in brief: as §1
# [16] = biological target: Fuc(a1-2)[Gal(a1-3)]Gal(b1-4)GlcNAc(b1-3)GalNAc
# Method in brief: as §1
# [17] = biological target: Fuc(a1-2)[Gal(a1-3)]Gal(b1-4)GlcNAc(b1-3)[Fuc(a1-2)[Gal(a1-3)]Gal(b1-4)GlcNAc(b1-6)]GalNAc
# Method in brief: as §1
# [18] = biological target: Fuc(a1-2)[Gal(a1-3)]Gal(b1-4)GlcNAc(b1-6)GalNAc
# Method in brief: as §1
# [19] = biological target: Fuc(a1-2)[Gal(a1-3)]Gal(b1-4)[Fuc(a1-3)]Glc
# Method in brief: as §1
# [20] = biological target: Fuc(a1-2)[Gal(a1-3)]Gal(b1-4)[Fuc(a1-3)]GlcNAc
# Method in brief: as §1
# [21] = biological target: Fuc(a1-2)[Gal(a1-3)]Gal(b1-4)[Fuc(a1-3)]GlcNAc(b1-3)GalNAc
# Method in brief: as §1
# [22] = biological target: Fuc(a1-2)[Gal(a1-4)]Gal(b1-4)GlcNAc
# Method in brief: as §1
# [23] = biological target: Fuc(a1-2)[GalNAc(a1-3)]Gal
# Method in brief: as §1
# [24] = biological target: Fuc(a1-2)[GalNAc(a1-3)]Gal(b1-3)GalNAc(a1-3)[Fuc(a1-2)]Gal(b1-4)GlcNAc
# Method in brief: as §1
# [25] = biological target: Fuc(a1-2)[GalNAc(a1-3)]Gal(b1-3)GalNAc(b1-3)Gal(a1-4)Gal(b1-4)Glc
# Method in brief: as §1
# [26] = biological target: Fuc(a1-2)[GalNAc(a1-3)]Gal(b1-3)GlcNAc
# Method in brief: as §1
# [27] = biological target: Fuc(a1-2)[GalNAc(a1-3)]Gal(b1-3)GlcNAc(b1-2)Man(a1-3)[Fuc(a1-2)[GalNAc(a1-3)]Gal(b1-3)GlcNAc(b1-2)Man(a1-6)]Man(b1-4)GlcNAc(b1-4)GlcNAc
# Method in brief: as §1
# [28] = biological target: Fuc(a1-2)[GalNAc(a1-3)]Gal(b1-3)GlcNAc(b1-2)Man(a1-3)[Fuc(a1-2)[GalNAc(a1-3)]Gal(b1-3)GlcNAc(b1-2)Man(a1-6)]Man(b1-4)GlcNAc(b1-4)[Fuc(a1-6)]GlcNAc
# Method in brief: as §1
# [29] = biological target: Fuc(a1-2)[GalNAc(a1-3)]Gal(b1-3)GlcNAc(b1-3)GalNAc
# Method in brief: as §1
# [30] = biological target: Fuc(a1-2)[GalNAc(a1-3)]Gal(b1-3)GlcNAc(b1-6)GalNAc
# Method in brief: as §1
# [31] = biological target: Fuc(a1-2)[GalNAc(a1-3)]Gal(b1-4)Glc
# Method in brief: as §1
# [32] = biological target: Fuc(a1-2)[GalNAc(a1-3)]Gal(b1-4)GlcNAc
# Method in brief: as §1
# [33] = biological target: Fuc(a1-2)[GalNAc(a1-3)]Gal(b1-4)GlcNAc(b1-2)Man
# Method in brief: as §1
# [34] = biological target: Fuc(a1-2)[GalNAc(a1-3)]Gal(b1-4)GlcNAc(b1-2)Man(a1-3)[Fuc(a1-2)[GalNAc(a1-3)]Gal(b1-4)GlcNAc(b1-2)Man(a1-6)]Man(b1-4)GlcNAc(b1-4)GlcNAc
# Method in brief: as §1
# [35] = biological target: Fuc(a1-2)[GalNAc(a1-3)]Gal(b1-4)GlcNAc(b1-2)Man(a1-3)[Fuc(a1-2)[GalNAc(a1-3)]Gal(b1-4)GlcNAc(b1-2)Man(a1-6)]Man(b1-4)GlcNAc(b1-4)[Fuc(a1-6)]GlcNAc
# Method in brief: as §1
# [36] = biological target: Fuc(a1-2)[GalNAc(a1-3)]Gal(b1-4)GlcNAc(b1-3)Gal(b1-4)GlcNAc
# Method in brief: as §1
# [37] = biological target: Fuc(a1-2)[GalNAc(a1-3)]Gal(b1-4)GlcNAc(b1-3)Gal(b1-4)GlcNAc(b1-3)Gal(b1-4)GlcNAc
# Method in brief: as §1
# [38] = biological target: Fuc(a1-2)[GalNAc(a1-3)]Gal(b1-4)GlcNAc(b1-3)GalNAc
# Method in brief: as §1
# [39] = biological target: Fuc(a1-2)[GalNAc(a1-3)]Gal(b1-4)GlcNAc(b1-3)[Fuc(a1-2)[GalNAc(a1-3)]Gal(b1-4)GlcNAc(b1-6)]GalNAc
# Method in brief: as §1
# [40] = biological target: Fuc(a1-2)[GalNAc(a1-3)]Gal(b1-4)GlcNAc(b1-6)GalNAc
# Method in brief: as §1
# [41] = biological target: Fuc(a1-2)[GalNAc(a1-3)]Gal(b1-4)[Fuc(a1-3)]GlcNAc
# Method in brief: as §1
# [42] = biological target: Fuc(a1-2)[GalNAc(a1-3)]Gal(b1-4)[Fuc(a1-3)]GlcNAc(b1-3)GalNAc
# Method in brief: as §1
# [43] = biological target: Fuc(a1-2)[GalNAc(a1-4)]Gal(b1-4)GlcNAc
# Method in brief: as §1
binder,measurement,setting,value
Banana lectin (Musa acuminata) (protein) MNGAIKVGAWGGNGGSAFDMGPAYRIISVKIFSGDVVDGVDVTFTYYGKTETRHYGGSGGTPHEIVLQEGEYLVGMAGEVANYHGAVVLGKLGFSTNKKAYGPFGNTGGTPFSLPIAAGKISGFFGRGGKFLDAIGVYLEPLEHHHHHH,glycan array binding signal (z-score),[1],-0.216
same,glycan array binding signal (z-score),[2],-0.182
same,glycan array binding signal (z-score),Fuc(a1-2)Gal6S(b1-4)Glc,-0.203
same,glycan array binding signal (z-score),[3],-0.223
same,glycan array binding signal (z-score),Fuc(a1-2)[Gal(a1-3)]Gal,-0.259
same,glycan array binding signal (z-score),[4],-0.162
same,glycan array binding signal (z-score),[5],-0.202
same,glycan array binding signal (z-score),[6],-0.193
same,glycan array binding signal (z-score),[7],0.148
same,glycan array binding signal (z-score),[8],0.651
same,glycan array binding signal (z-score),[9],-0.22
same,glycan array binding signal (z-score),[10],-0.374
same,glycan array binding signal (z-score),[11],-0.217
same,glycan array binding signal (z-score),[12],-0.182
same,glycan array binding signal (z-score),[13],-0.204
same,glycan array binding signal (z-score),[14],-0.047
same,glycan array binding signal (z-score),[15],0.595
same,glycan array binding signal (z-score),[16],-0.183
same,glycan array binding signal (z-score),[17],-0.195
same,glycan array binding signal (z-score),[18],-0.182
same,glycan array binding signal (z-score),[19],-0.191
same,glycan array binding signal (z-score),[20],-0.217
same,glycan array binding signal (z-score),[21],-0.192
same,glycan array binding signal (z-score),[22],-0.275
same,glycan array binding signal (z-score),[23],-0.181
same,glycan array binding signal (z-score),[24],-0.211
same,glycan array binding signal (z-score),[25],-0.218
same,glycan array binding signal (z-score),[26],-0.184
same,glycan array binding signal (z-score),[27],-0.219
same,glycan array binding signal (z-score),[28],0.778
same,glycan array binding signal (z-score),[29],-0.215
same,glycan array binding signal (z-score),[30],-0.237
same,glycan array binding signal (z-score),[31],-0.118
same,glycan array binding signal (z-score),[32],-0.154
same,glycan array binding signal (z-score),[33],-0.214
same,glycan array binding signal (z-score),[34],-0.019
same,glycan array binding signal (z-score),[35],0.421
same,glycan array binding signal (z-score),[36],-0.238
same,glycan array binding signal (z-score),[37],-0.187
same,glycan array binding signal (z-score),[38],-0.223
same,glycan array binding signal (z-score),[39],-0.173
same,glycan array binding signal (z-score),[40],-0.213
same,glycan array binding signal (z-score),[41],-0.236
same,glycan array binding signal (z-score),[42],-0.215
same,glycan array binding signal (z-score),[43],-0.19
